# The IC50 comes from the fitted curve, where viability falls to half of the control; where the fit passes the top or lowest dose, that dose stands as a limit. AUC sums up the same curve from the lowest dose to the 256-fold higher top dose; the more sensitive the line, the further below 1. For part of these data: A top dose marked as inferred was calculated from the reported fits. For part of these data: Drugs with an entry number were screened twice under separate entries, and the two screens often disagree.
# Assays:
# Assay in all cases: Viability of human cancer cell lines after 72 h of drug (GDSC screen)
# CUDC-101 = compound: C#Cc1cccc(Nc2ncnc3cc(OC)c(OCCCCCCC(=O)NO)cc23)c1 [CUDC-101]; details: top dose 5.12 µM; top dose inferred
# Procedure: (§1)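 Human cancer cell lines in 384-well plates, medium with 10% serum, drug for 72 h over a 256-fold dose range (nine 2-fold or five 4-fold steps up to the top dose). Adherent lines were fixed and stained with the nucleic acid dye Syto60, suspension lines read with resazurin; signal relative to control wells, capped at 0 and 100%. One two-parameter sigmoid per drug and line, fitted in a mixed model over all curves with the slope shared within a line.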
# 5-Fluorouracil = compound: O=c1[nH]cc(F)c(=O)[nH]1 [5-Fluorouracil]; details: top dose 32 µM; top dose inferred
# Procedure: as §1
# RDEA119 = compound: COc1cc(F)c(F)c(Nc2ccc(I)cc2F)c1NS(=O)(=O)C1(C[C@H](O)CO)CC1 [RDEA119]; details: top dose 5 µM, top dose inferred
# Procedure: as §1
# AC220 = compound: CC(C)(C)c1cc(NC(=O)Nc2ccc(-c3cn4c(n3)sc3cc(OCCN5CCOCC5)ccc34)cc2)no1 [AC220]; details: top dose 1.024 µM; top dose inferred
# Procedure: as §1
# JNK-9L = compound: Fc1cc(-c2ccnc(Nc3ccc(-n4cnc(N5CCOCC5)n4)cc3)n2)cc(N2CCOCC2)c1 [JNK-9L]; details: top dose 5.12 µM; top dose inferred
# Procedure: as §1
# QS11 = compound: OC[C@H](Cc1ccccc1)Nc1nc(Oc2ccc3c(c2)CCC3)nc2c1ncn2Cc1ccc(-c2ccccc2)cc1 [QS11]; details: top dose 10.24 µM
# Procedure: as §1
Cell Line,AUC (CUDC-101),IC50 (CUDC-101) [µM],AUC (5-Fluorouracil),IC50 (5-Fluorouracil) [µM],AUC (RDEA119; screen: GDSC drug entry 1014),IC50 (RDEA119; screen: GDSC drug entry 1014) [µM],AUC (RDEA119; screen: GDSC drug entry 1526),IC50 (RDEA119; screen: GDSC drug entry 1526) [µM],AUC (AC220),IC50 (AC220) [µM],AUC (JNK-9L),IC50 (JNK-9L) [µM],AUC (QS11),IC50 (QS11) [µM]
"OVCA420 (ovary, adherent)",0.661,1.04,0.929,> 32,0.585,0.575,0.613,0.71,0.981,> 1.02,–,–,–,–
"OVCA433 (ovary, adherent)",0.639,0.812,0.936,> 32,0.658,0.907,0.635,0.773,0.983,> 1.02,–,–,–,–
"OVK-18 (ovary, adherent)",0.968,> 5.12,0.703,7.98,0.72,1.42,0.825,3.43,0.983,> 1.02,–,–,–,–
"PEO1 (ovary, adherent)",0.393,0.16,0.956,> 32,0.834,3.45,0.805,2.65,0.987,> 1.02,–,–,–,–
"QGP-1 (pancreas, adherent)",0.558,0.506,0.778,22.5,0.809,4.95,0.833,> 5,0.964,> 1.02,–,–,–,–
"RCC-AB (kidney, adherent)",0.463,0.245,0.784,18.2,0.809,3.65,0.904,> 5,0.958,> 1.02,–,–,–,–
"RCC-ER (kidney, adherent)",0.933,> 5.12,0.963,> 32,0.93,> 5,0.872,> 5,0.986,> 1.02,–,–,–,–
"RCC-FG2 (kidney, adherent)",0.827,4.38,0.945,> 32,0.902,> 5,0.841,4.96,0.978,> 1.02,–,–,–,–
"RCC-JF (kidney, adherent)",0.55,0.446,0.668,6.27,0.561,0.47,0.721,1.45,0.978,> 1.02,–,–,–,–
"RCC-JW (kidney, adherent)",0.589,0.566,0.962,> 32,0.852,4.02,0.873,> 5,0.981,> 1.02,–,–,–,–
"RCC-MF (kidney, adherent)",0.638,0.864,0.848,> 32,0.76,2.27,0.817,3.94,0.968,> 1.02,–,–,–,–
"RL95-2 (endometrium, adherent)",0.45,0.234,0.873,30.2,–,–,0.68,0.988,0.987,> 1.02,0.541,0.415,–,–
"SK-GT-4 (oesophagus, adherent)",0.455,0.235,0.889,> 32,0.555,0.457,0.55,0.442,0.981,> 1.02,–,–,–,–
"SK-MG-1 (glioma, adherent)",0.535,0.399,0.927,> 32,0.913,> 5,0.916,> 5,0.973,> 1.02,–,–,–,–
"SNU-61 (large intestine, adherent)",0.461,0.242,0.664,6.65,0.89,> 5,0.828,4.54,0.972,> 1.02,–,–,–,–
"SNU-81 (large intestine, adherent)",0.979,> 5.12,0.617,4.7,0.744,2.04,0.732,1.83,0.952,> 1.02,–,–,–,–
"SNU-407 (large intestine, adherent)",0.609,0.672,0.589,3.65,0.687,1.15,0.303,0.0788,0.942,> 1.02,–,–,–,–
"SNU-1040 (large intestine, adherent)",0.768,2.58,0.842,> 32,–,–,0.929,> 5,0.93,> 1.02,–,–,–,–
"SNU-C5 (large intestine, adherent)",0.641,0.819,0.868,> 32,0.707,1.28,0.719,1.4,0.981,> 1.02,–,–,–,–
"SU-DHL-10 (B-cell lymphoma, suspension)",0.056,0.0228,0.782,9.67,0.998,> 5,0.998,> 5,0.978,> 1.02,0.388,0.172,–,–
"SW48 (large intestine, adherent)",0.463,0.254,0.77,12.1,0.861,4.2,0.747,1.59,0.987,> 1.02,0.539,0.408,0.974,> 10.2
"SW1116 (large intestine, adherent)",0.757,2.36,0.985,> 32,–,–,0.717,1.63,0.984,> 1.02,–,–,–,–
"TE-4 (oesophagus, adherent)",0.641,0.783,0.976,> 32,0.821,2.89,0.812,2.66,0.985,> 1.02,–,–,–,–
"UWB1.289 (ovary, adherent)",0.563,0.517,0.956,> 32,0.912,> 5,0.898,> 5,0.973,> 1.02,–,–,–,–
"YH-13 (glioma, adherent)",0.679,1.05,0.98,> 32,0.82,3.09,0.841,3.77,0.967,> 1.02,–,–,–,–

# Source: the supplement of paper PMC4967469
